Data from PubChem BioAssay AID463173 (ICCB-Longwood Screening Facility, Harvard Medical School, 2010).
Among all 52,000 compounds or so, about 1,700 (3.3%) were called active. No stated cut-off is given here; in the data, active means survival mostly below about 52% (no sharp cut-off); inactive means mostly above about 56%. Some of the results follow.

Each compound was assayed on Wild type (assay: growth inhibition of S. aureus wild type versus tarO mutant, primary screen, teichoic acid synthesis inhibitors, RN4220, OD600 (AID 463173)). Details: S. aureus RN4220 wild type/DeltatarO growth, OD600, 18 h, hits give low values, screened at 18.75 µg/mL (by protocol).
For `Cc1nn(C)c2c1c(C(F)(F)F)cc(=O)n2C(C)C(=O)N1CCN(c2ccccc2)CC1` (centres undefined), the survival was inactive: 93%. For `Cn1cc(S(=O)(=O)N2CCCCCC2)cc1C(=O)N1CCN(c2ccc(Cl)cc2)CC1`, the survival was inactive: 77%. For `Clc1ccc(CCNC(c2cccc(Cl)c2)c2nnc(-c3ccccc3)o2)cc1` (centres undefined), the survival was active: 5%. For `Cn1c(=O)c2c(ncn2CC(=O)Nc2cc(Cl)cc(Cl)c2)n(C)c1=O`, the survival was inactive: 84%. `CCOC(=O)c1c(C)[nH]c(C)c1S(=O)(=O)N1CCN(c2ccccc2OC)CC1` was tested, and the survival was inactive: 124%. In the case of `COc1ccc(Cl)cc1NC(=O)CSc1nc2ccccc2nc1N1CCCCC1`, the survival is reported as active: -9%. `CC1=C(C(=O)Nc2ccccc2)C(c2ccccc2Cl)n2ncc(C(=O)Nc3cccc(C)c3)c2N1` (centres undefined) was tested, and the survival was inactive: 72%. `CCOC(=O)c1c(C)oc2ncnc(N3CCN(c4cccc(Cl)c4)CC3)c12` was tested, and the survival was inactive: 115%. With `COc1cc(/C=C/c2nc(C#N)c(NC(C)c3ccccc3)o2)cc(OC)c1OC` (centres undefined) the survival was inactive: 68%. With `O=C(O)CCc1ccc(-c2ccccc2)n1-c1cccc(Br)c1` the survival was inactive: 60%. With `CCOc1ccc(CNC(=O)Cn2c(=O)c3cccn3c3ccc(F)cc32)cc1OC` the survival was inactive: 100%. For `O=C(CCCCn1c(=O)c2ccccc2n(CC(=O)Nc2cccc(F)c2)c1=O)NCc1ccccc1Cl`, the survival was inactive: 89%. With `CN(Cc1ccccc1)C(=O)c1cc2c(s1)-c1ccc(Cl)cc1SC2` the survival was inactive: 86%. With `CCCCN(C)CCNC(=O)Cn1ncc2c([nH]c3ccccc32)c1=O` the survival was active: 0%. For `Cc1ccc(NC(=O)CCSc2nc(-c3ccc4c(c3)OCO4)cc(C(F)(F)F)n2)cc1`, the survival was inactive: 80%. In the case of `Cc1ccc(CNC(=O)Cn2c(=O)n(-c3ccccc3)c(=O)c3c2c2cc(C)ccc2n3C)cc1`, the survival is reported as inactive: 67%. With `CCc1ccc(Oc2nc3c(C)cccn3c(=O)c2/C=C(\C#N)c2nc3ccccc3s2)cc1` the survival was inactive: 70%. `O=C(c1ccc(Cl)cc1)n1nc(-c2ccco2)nc1NCc1cccs1` was tested, and the survival was inactive: 87%. With `CCN(CC)CCNc1c2c(nc3cc(-c4ccc(OC)c(OC)c4)nn13)CCC2` the survival was inactive: 108%. With `CCOC(=O)CCN(c1ccccc1)S(=O)(=O)c1ccc2[nH]c(=O)ccc2c1` the survival was inactive: 69%. In the case of `COc1cccc(N(Cc2nnc3n2CCCCC3)C(=O)Nc2cccc(Cl)c2)c1`, the survival is reported as inactive: 55%. With `CCOCCCNC(=O)CN1C(=O)c2c(c3ccccc3n2C)C1c1ccc(OC)cc1` (centres undefined) the survival was inactive: 69%. `COc1ccc(CCCc2nnc(SCC(=O)Nc3ccccc3F)o2)cc1C` was tested, and the survival was inactive: 67%. `Cc1ccc(-n2ncc3c(N(CCO)Cc4ccccc4)ncnc32)cc1` was tested, and the survival was active: 0%. With `CCOc1ccccc1NC(=O)N1CCCn2nc(C)cc21` the survival was inactive: 75%. `O=C(NCC(c1cccs1)S(=O)(=O)c1cccs1)c1ccc(C(F)(F)F)cc1` (centres undefined) was tested, and the survival was inactive: 72%. `O=C(O)CC1c2ccccc2Oc2ccccc21` was tested, and the survival was inactive: 129%. For `O=C(Cc1csc2nc(-c3ccccc3)cn12)NCc1ccc(F)cc1`, the survival was inactive: 72%. With `O=C(O)c1cccc(-n2cccc2)c1` the survival was inactive: 103%. For `Cc1ccc(NC(=O)CCc2c(C)nn(-c3ccc(N4CCOCC4)nn3)c2C)cc1F`, the survival was inactive: 120%. For `COc1ccc(N(C(=O)COc2ccc(Br)cc2)S(=O)(=O)c2ccc(C)cc2)cc1`, the survival was inactive: 87%. `CCOC(=O)c1c(S(=O)(=O)N2CCCC(C(=O)Nc3ncccc3C)C2)c(C)n(C)c1C` (centres undefined) was tested, and the survival was inactive: 71%. For `O=C(OCc1ccccc1Cl)c1ccc(-c2nnn(Cc3ccccc3Cl)n2)cc1`, the survival was inactive: 62%. With `CNC(=O)N(O)C1N(c2ccccc2)C(=S)SC1(C)C` (centres undefined) the survival was inactive: 109%. For `COc1ccc(Cn2ccc3nc(C)c(C(=O)Nc4ccc(OC)cc4OC)cc3c2=O)cc1`, the survival was active: 0%. For `Cc1ccc(NC(=O)Cn2cc(S(=O)(=O)NC(C)C)c(S(=O)(=O)NC(C)C)c2)cc1Cl`, the survival was inactive: 74%. For `Cc1ccc(NC(=O)Cn2c(=O)n(CCc3ccccc3)c(=O)c3c4c(sc32)CCCC4)cc1C`, the survival was inactive: 95%. With `Cc1ccc(C)c(CN2C(=O)c3ccccc3S(=O)c3ccc(C(=O)NCc4ccco4)cc32)c1` (centres undefined) the survival was inactive: 93%. With `COc1ccc(CNC(=O)Cn2ccc3cc(S(=O)(=O)N4CCCCCC4)ccc32)c(OC)c1` the survival was inactive: 159%. For `Cc1ccc(N2CC(NC(=O)/C=C\c3ccc4c(c3)OCO4)CC2=O)cc1` (centres undefined), the survival was inactive: 63%. With `O=C(C1CC1)N1CCc2cc(Br)cc(S(=O)(=O)N3CCN(c4ccccc4F)CC3)c21` the survival was inactive: 75%. `COc1ccc(Oc2nc3c(c(=O)n(Cc4ccccc4Cl)c(=O)n3C)n2C)cc1` was tested, and the survival was inactive: 66%. In the case of `COC(=O)c1c(SCC(=O)Nc2ccccc2OC)[nH]c2ccccc2c1=O`, the survival is reported as inactive: 66%. For `Cc1cc2ccccc2n1-c1ccc(C(=O)N2CCC(C(=O)NCc3ccc(F)cc3)CC2)s1`, the survival was active: 1%. In the case of `CC(C)n1c(=O)c2oc3ccccc3c2n(Cc2ccccc2F)c1=O`, the survival is reported as inactive: 78%. In the case of `Cc1ccc(-c2nnc(Nc3ccc(O)cc3)c3ccccc23)cc1S(=O)(=O)NCC1CCCO1` (centres undefined), the survival is reported as inactive: 70%. With `COc1cccc(NC(=O)c2ccc(CNS(=O)(=O)c3ccc4c(c3)C(C)(C)C(=O)N4C)cc2)c1` the survival was inactive: 78%. With `O=C(/C=C/c1ccco1)Nc1ccc(Cl)c(-c2nc3cc(Cl)ccc3o2)c1` the survival was inactive: 68%. `Cc1c(Cl)cccc1NC(=O)CSc1cc(-c2ccccc2)ncn1` was tested, and the survival was inactive: 84%. For `Cc1ccc(NC(=O)C2CCN(c3nn4c(=O)cc(C)nc4s3)CC2)cc1`, the survival was inactive: 89%. In the case of `CC12CN3CC(C)(CN(C1)C3c1ccc(OCc3ccccc3)cc1)C2=O` (centres undefined), the survival is reported as inactive: 90%. For `CCOC(=O)c1cccc(NC(=O)CCNS(=O)(=O)c2cccc3nonc23)c1`, the survival was inactive: 69%. For `CN(C)c1cccc(C(=O)Nc2ccc(-c3nc4ccccc4s3)cc2)c1`, the survival was inactive: 124%. With `O=C(CSc1nc2c(oc3ccccc32)c(=O)[nH]1)Nc1cccc(Cl)c1` the survival was inactive: 63%. With `CC1=C(c2ccc(Cl)cc2)S(=O)(=O)NC1=NCc1ccc(C)cc1` the survival was inactive: 85%. `COc1ccc(-c2nc3scc(CCNS(=O)(=O)c4cccc(C(C)=O)c4)n3n2)cc1` was tested, and the survival was inactive: 71%. In the case of `CCOC(=O)c1ccc(NC(=O)c2cc3c(n(-c4ccc(C)cc4)c2=O)CC(C)(C)CC3=O)cc1`, the survival is reported as inactive: 134%. In the case of `Cn1c(C(=O)N2CCC(C(=O)NCCc3ccc(S(N)(=O)=O)cc3)CC2)cc2sccc21`, the survival is reported as inactive: 88%. In the case of `Cc1ccc(CCNC(=O)c2ccc(CSCc3ccc(C)cc3)o2)cc1`, the survival is reported as inactive: 65%. `COc1cccc(NC(=O)N2CCN(c3nnnn3-c3ccccc3)CC2)c1` was tested, and the survival was inactive: 105%. For `Cc1ccc(NC(=O)CSc2nnc(C)c(=O)[nH]2)cc1`, the survival was inactive: 86%. With `CCc1ccc(NC(=O)Cn2c(=O)ccc3cc(S(=O)(=O)N4CCCC4)ccc32)cc1` the survival was inactive: 148%. With `CCOC(=O)c1cccc(Nc2cc(C)nc(C)n2)c1` the survival was inactive: 93%. In the case of `Cc1noc(Cn2c(=O)c3ccccc3n(CC(=O)Nc3ccccc3C(F)(F)F)c2=O)n1`, the survival is reported as inactive: 125%. With `Oc1ccc(Nc2nc(-c3ccc(Cl)cc3)nc3ccccc23)cc1` the survival was active: 3%. For `Cc1nnc2c3ccccc3nc(N3CCN(c4cccc(Cl)c4)CC3)n12`, the survival was inactive: 90%. `CCOCCCn1c(=N)c(C(=O)NC2CCCC2)cc2c(=O)n3cccc(C)c3nc21` was tested, and the survival was inactive: 67%. With `Cc1cccc(-n2ncc3c(Nc4c(C)cc(C)cc4C)ncnc32)c1` the survival was inactive: 83%. `CCc1ccc(NC(=O)c2ccc3c(c2)c(C)c(C)n3Cc2ccccc2)cc1` was tested, and the survival was inactive: 72%. For `CCCCOc1ccc(C2c3c(oc4ccccc4c3=O)C(=O)N2c2nc(C)c(C(=O)OCC)s2)cc1OC` (centres undefined), the survival was inactive: 69%. `COc1ccccc1CNC(=O)CN1C(=O)CCCc2ccccc21` was tested, and the survival was inactive: 78%. With `CCc1ccc(NC(=O)c2oc3c(c2C)-c2[nH]ncc2CC3)cc1` the survival was inactive: 59%. `CC1(C)C(=O)NCCN1C(=O)CSc1nccc(-c2ccccc2)n1` was tested, and the survival was inactive: 106%. In the case of `O=S(=O)(Nc1ccc(Br)cc1)c1ccc2nc(-c3ccccc3)[nH]c2c1`, the survival is reported as active: -3%. In the case of `Cc1ccc(CCNC(=O)CN2CCN(Cc3ccc(Cl)cc3)C2=O)cc1`, the survival is reported as inactive: 76%. `O=C(CCC1N=C2c3ccccc3N=C(SCc3cccc(F)c3)N2C1=O)NCc1ccc(F)cc1` (centres undefined) was tested, and the survival was inactive: 68%. `Cc1ccc(S(=O)(=O)Nc2ccc3c(c2)c(C(=O)OC(C)C)c(C)n3S(=O)(=O)c2ccc(C)cc2)cc1` was tested, and the survival was inactive: 105%. For `COc1ccc(S(=O)(=O)NCCc2cn3ccsc3n2)cc1`, the survival was inactive: 82%. In the case of `CC(=O)c1ccc(NC(=O)c2ccc(CN3C(=O)CCn4nc(C)cc43)cc2)cc1`, the survival is reported as inactive: 81%. With `CCc1ccc(NC(=O)Cn2nnc(C(=O)Nc3cc(C)ccc3OC)c2N)cc1` the survival was inactive: 75%. `O=C(Nc1ccccc1Br)N1CCN2CCCCC2C1` (centres undefined) was tested, and the survival was inactive: 92%. `Cc1nn2c(=O)cc(COC(=O)c3ccc(F)cc3)nc2s1` was tested, and the survival was inactive: 73%. With `CCc1ccc(NC(=O)CN2C(=O)CCSc3ccc(S(=O)(=O)N4CCCC4)cc32)cc1` the survival was inactive: 69%. With `COc1ccc(C(=O)c2cn(Cc3cccc(C)c3)c3cc4c(cc3c2=O)OCCO4)cc1OC` the survival was inactive: 101%. For `CC(C)n1c(N2CCN(Cc3ccc(Cl)cc3)CC2)nc2ccccc21`, the survival was inactive: 128%. In the case of `Cn1nnnc1SCCCNCc1ccccc1OCc1ccccc1F`, the survival is reported as inactive: 87%. In the case of `COC(=O)c1ccccc1NC(=O)c1cc(=O)c2ccc(C)c(C)c2o1`, the survival is reported as inactive: 83%. With `CC1CN(CCC(=O)Nc2ccc3c(c2)OCO3)CC(C)O1` (centres undefined) the survival was inactive: 113%. With `COc1ccc(CCNC(=O)Cn2ccc3cc(S(=O)(=O)N4CCCCC4)ccc32)cc1OC` the survival was inactive: 75%.
